# In patent publication US20240277663A1, “PHARMACEUTICAL KITS AND USES THEREOF FOR TREATING COLORECTAL CANCER” (priority 2023, published 2024):
# How the values were obtained:
# Assay in all cases: HDAC enzymatic activity assay (fluorogenic, Reaction Biology)
# [1] = target: HDAC2 (Homo sapiens, UniProt Q92769)
# [2] = target: T1, HDAC7 (Homo sapiens, UniProt Q8WUI4)
# T1 sequence (Q8WUI4 1-952): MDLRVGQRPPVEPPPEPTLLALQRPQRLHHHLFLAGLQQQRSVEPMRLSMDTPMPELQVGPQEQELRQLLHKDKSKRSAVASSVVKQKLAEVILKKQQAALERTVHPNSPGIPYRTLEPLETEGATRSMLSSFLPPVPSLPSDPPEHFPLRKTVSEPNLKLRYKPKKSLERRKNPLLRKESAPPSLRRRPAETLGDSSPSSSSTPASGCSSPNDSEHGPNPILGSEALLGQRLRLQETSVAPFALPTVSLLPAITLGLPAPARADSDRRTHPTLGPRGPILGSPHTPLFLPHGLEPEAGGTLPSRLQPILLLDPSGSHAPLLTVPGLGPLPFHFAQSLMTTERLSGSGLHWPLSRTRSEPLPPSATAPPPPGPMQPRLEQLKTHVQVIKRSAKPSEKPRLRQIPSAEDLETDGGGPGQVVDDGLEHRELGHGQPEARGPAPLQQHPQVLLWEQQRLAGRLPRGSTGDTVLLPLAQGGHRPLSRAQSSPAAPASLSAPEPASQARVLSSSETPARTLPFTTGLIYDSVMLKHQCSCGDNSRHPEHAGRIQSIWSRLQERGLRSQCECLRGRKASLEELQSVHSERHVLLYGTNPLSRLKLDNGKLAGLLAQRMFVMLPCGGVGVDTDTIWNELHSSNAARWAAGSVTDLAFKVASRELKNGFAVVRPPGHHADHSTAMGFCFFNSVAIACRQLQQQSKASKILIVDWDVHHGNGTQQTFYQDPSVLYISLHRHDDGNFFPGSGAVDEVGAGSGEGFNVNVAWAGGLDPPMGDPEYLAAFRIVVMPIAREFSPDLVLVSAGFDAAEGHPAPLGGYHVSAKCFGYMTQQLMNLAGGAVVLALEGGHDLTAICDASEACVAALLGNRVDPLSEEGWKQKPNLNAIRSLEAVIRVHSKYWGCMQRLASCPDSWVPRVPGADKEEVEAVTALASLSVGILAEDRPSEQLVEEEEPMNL
# [3] = target: HDAC9 (Homo sapiens, UniProt Q9UKV0)
# [4] = target: T2, HDAC11 (Homo sapiens, UniProt Q96DB2)
# T2 sequence (Q96DB2 1-347): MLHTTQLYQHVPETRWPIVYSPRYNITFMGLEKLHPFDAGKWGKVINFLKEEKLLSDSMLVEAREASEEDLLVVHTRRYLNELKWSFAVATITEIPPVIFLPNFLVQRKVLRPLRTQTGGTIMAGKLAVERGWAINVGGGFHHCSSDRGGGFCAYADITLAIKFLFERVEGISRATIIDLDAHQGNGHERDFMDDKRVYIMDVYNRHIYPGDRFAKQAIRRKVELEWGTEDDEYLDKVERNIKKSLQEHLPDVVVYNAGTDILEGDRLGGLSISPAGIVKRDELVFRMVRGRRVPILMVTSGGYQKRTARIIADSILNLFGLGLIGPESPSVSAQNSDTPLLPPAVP
# Chain of UniProt Q92769 (Q92769 whole entry): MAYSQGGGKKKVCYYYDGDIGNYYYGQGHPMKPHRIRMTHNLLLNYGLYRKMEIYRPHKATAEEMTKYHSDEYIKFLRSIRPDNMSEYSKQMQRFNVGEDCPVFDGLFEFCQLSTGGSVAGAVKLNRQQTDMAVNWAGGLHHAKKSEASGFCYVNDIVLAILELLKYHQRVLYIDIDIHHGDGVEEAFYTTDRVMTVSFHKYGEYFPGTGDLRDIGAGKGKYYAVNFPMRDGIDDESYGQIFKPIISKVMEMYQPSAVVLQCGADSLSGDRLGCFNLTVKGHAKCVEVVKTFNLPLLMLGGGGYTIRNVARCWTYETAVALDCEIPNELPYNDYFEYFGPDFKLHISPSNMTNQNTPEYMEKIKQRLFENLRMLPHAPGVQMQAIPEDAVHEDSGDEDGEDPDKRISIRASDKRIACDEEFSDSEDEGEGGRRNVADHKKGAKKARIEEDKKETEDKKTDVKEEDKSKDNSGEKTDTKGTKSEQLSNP
# Chain of UniProt Q9UKV0 (Q9UKV0 whole entry): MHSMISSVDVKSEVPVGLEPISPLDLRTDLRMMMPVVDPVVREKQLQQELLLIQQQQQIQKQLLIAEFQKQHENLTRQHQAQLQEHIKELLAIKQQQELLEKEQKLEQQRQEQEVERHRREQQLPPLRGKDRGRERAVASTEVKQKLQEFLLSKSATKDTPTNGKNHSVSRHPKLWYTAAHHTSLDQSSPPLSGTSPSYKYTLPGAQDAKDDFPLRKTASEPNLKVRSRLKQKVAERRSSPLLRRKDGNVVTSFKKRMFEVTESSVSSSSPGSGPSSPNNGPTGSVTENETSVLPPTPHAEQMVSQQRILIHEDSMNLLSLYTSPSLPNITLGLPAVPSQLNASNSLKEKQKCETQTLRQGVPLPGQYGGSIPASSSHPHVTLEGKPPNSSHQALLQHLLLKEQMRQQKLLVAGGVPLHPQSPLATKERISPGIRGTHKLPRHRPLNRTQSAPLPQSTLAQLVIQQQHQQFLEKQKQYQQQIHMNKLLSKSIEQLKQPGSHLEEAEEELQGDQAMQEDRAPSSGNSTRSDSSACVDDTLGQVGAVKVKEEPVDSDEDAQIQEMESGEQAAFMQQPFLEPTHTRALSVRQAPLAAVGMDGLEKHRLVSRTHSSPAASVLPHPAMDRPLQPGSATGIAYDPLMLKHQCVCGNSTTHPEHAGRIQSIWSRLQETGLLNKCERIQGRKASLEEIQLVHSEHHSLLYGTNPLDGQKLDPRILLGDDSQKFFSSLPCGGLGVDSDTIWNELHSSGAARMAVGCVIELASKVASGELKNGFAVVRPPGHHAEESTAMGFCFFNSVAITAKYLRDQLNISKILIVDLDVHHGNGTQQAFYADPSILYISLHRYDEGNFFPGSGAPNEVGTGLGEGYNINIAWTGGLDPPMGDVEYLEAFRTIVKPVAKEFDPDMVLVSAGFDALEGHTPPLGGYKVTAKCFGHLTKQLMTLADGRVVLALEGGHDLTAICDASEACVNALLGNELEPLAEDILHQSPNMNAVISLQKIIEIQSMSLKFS
smiles,measurement,setting,value
"O=C(/C=C/c1ccc2c(c1)CCN2S(=O)(=O)c1ccccc1)NO [ABT-301, (E)-N-hydroxy-3-(1-(phenylsulfonyl)-indolin-5-yl)-acrylamide]",IC50,[1],93.2 nM
same,IC50,[2],> 3000 nM
same,IC50,[3],> 3000 nM
same,IC50,[4],994 nM
